The values that follow come from PubChem BioAssay AID1745853 (National Center for Advancing Translational Sciences (NCATS), 2022).

Several values for one entry are separate records, joined by “and”; a condition that tells them apart may be missing. Equal entries are not always repeated. The list shows a part of the results. The main result of the screen is listed elsewhere. These columns were measured beside it and carry no call.

What all share (experiment): Primary Screen for Target Class Profiling of Small Molecule Inhibitors of Methyltransferases
Experiment [1] concerns the target Glycine N-methyltransferase (Homo sapiens) (UniProt Q14749). The note with it: purified enzyme, MTase-Glo SAH luminescence; measured here: GNMT inhibition; at 40 µM; stronger effect = lower value. A digest of the protocol:
(§1)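 Each enzyme was assayed with SAM and its substrate. SAH formation detected by MTase-Glo luminescence; single-point 40 uM screen[…].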

Experiment [2] has as its target Guanidinoacetate N-methyltransferase (Homo sapiens) (UniProt Q14353). The note with it: purified enzyme, MTase-Glo SAH luminescence; measured here: GAMT inhibition; at 40 µM; stronger effect = lower value. The procedure, abridged:
as §1

Experiment [3] deals with Histamine N-methyltransferase (Homo sapiens) (UniProt P50135). The note with it: purified enzyme, MTase-Glo SAH luminescence; measured here: HNMT inhibition; at 40 µM; stronger effect = lower value. A digest of the protocol:
as §1

Experiment [4] concerns the target Nicotinamide N-methyltransferase (Homo sapiens) (UniProt P40261). The note with it: purified enzyme, MTase-Glo SAH luminescence; measured here: NNMT inhibition; at 40 µM; stronger effect = lower value. The procedure, abridged:
as §1

Experiment [5] concerns the target Phenylethanolamine N-methyltransferase (Homo sapiens) (UniProt P11086). The note with it: purified enzyme, MTase-Glo SAH luminescence; measured here: PNMT inhibition; at 40 µM; stronger effect = lower value. A digest of the protocol:
as §1
% is set by controls: 0 for no effect and ±100 for the full control effect.

In the case of `CCOc1ccc(N2C(=O)c3cc4ccc(OC)cc4n3CC2(C)C(=O)NC2CCCC2)cc1` (stereo not given), the activity change, negative = inhibition is -1.96% in experiment [1]; 1.66% in experiment [2]; -3.83% in experiment [3]; -7.12% in experiment [4]; -7.9% in experiment [5].
Turning to `CC(=O)N1CCN(Cc2nnc(C(=O)N3CCC[C@@H]3c3cccc(F)c3)n2-c2ccccc2)CC1`, the activity change, negative = inhibition in experiment [1] is -4.49%; in experiment [2], -3.87%; in experiment [3], -2.41%; in experiment [4], -10%; in experiment [5], -0.931%.
Take `COc1ccc2cc3n(c2c1)CC(C)(C(=O)NC1CCCC1)N(c1ccc(C)c(C)c1)C3=O` (stereo not given): the activity change, negative = inhibition in experiment [1] worked out at 3.62%; in experiment [2], 0%; in experiment [3], 6.35%; in experiment [4], 6.07%; in experiment [5], 1.7%.
Consider `Cc1nc(NC(=O)N2CCC[C@H]2C(N)=O)sc1-c1ccnc(C(C)(C)C(F)(F)F)c1`, for which the activity change, negative = inhibition in experiment [1] is -17.1%; in experiment [2], -7.22% and -5.27%; in experiment [3], -13.4%; in experiment [4], -20.7% and -19.4%; in experiment [5], -11.5% and -14.8%.
Consider `COc1ccc(O)cc1CN1CCC(Cc2ccc(C(=O)O)cc2)C1` (stereo not given), for which the activity change, negative = inhibition is -7.64% in experiment [1]; -10.2% in experiment [2]; -21.9% in experiment [3]; -11% in experiment [4]; -26.3% in experiment [5].
For `COc1ccc(C(=O)C2CCN(CC(=O)N(Cc3nc4c(c(=O)[nH]3)COCC4)CC3CC3)CC2)cc1`, the activity change, negative = inhibition was -3.58% in experiment [1]; -12.2% in experiment [2]; 7.73% in experiment [3]; -19.9% in experiment [4]; -2.42% in experiment [5].
As to `CC1(C(=O)NC2CCCCCC2)Cn2c(cc3sccc32)C(=O)N1CCCN1CCCCC1` (stereo not given), the activity change, negative = inhibition in experiment [1] was 2.21%; in experiment [2] it was 0%; in experiment [3], -6.07%; in experiment [4], -1.83%; in experiment [5], 2.97%.
As for `CC(=O)O[C@@H]1C=C2[C@H](CC[C@@]3(C)[C@@]2(O)CC[C@H]2Cc4c([nH]c5ccccc45)[C@@]23C)O[C@@H]1C(C)(C)O`, the activity change, negative = inhibition in experiment [1] was -1.98%; in experiment [2], 6.59%; in experiment [3], 8.97%; in experiment [4], -6.27%; in experiment [5], 4.67%.
With `CCS(=O)(=O)N[C@@H]1CN(Cc2ccccc2)C[C@H]1CN(C)C`, the activity change, negative = inhibition in experiment [1] is -1.6%; in experiment [2] it was -2.29%; in experiment [3], 0.461%; in experiment [4] it was -3.25%; in experiment [5], 1.64%.
Consider `CCCn1c(=O)c2cc(Cl)ccc2n2c(SCC(=O)Nc3ccccc3F)nnc12`, for which the activity change, negative = inhibition in experiment [1] is -8.2%; in experiment [2], 0.948%; in experiment [3] it was 11.8%; in experiment [4], 5.58%; in experiment [5], 5.29%.
For the compound `COc1ccc(CN2C(=O)c3ccc(-c4ccccc4)n3CC2(C)C(=O)NC2CCC(C)CC2)cc1` (stereo not given), the activity change, negative = inhibition in experiment [1] was 3.34%; in experiment [2], 3.63%; in experiment [3], -0.887%; in experiment [4], -5.76%; in experiment [5], -0.762%.
Turning to `CC(=O)Nc1c2n(c3ccc(F)cc13)CC(C)(C(=O)NC1CCCC1)N(c1ccc(C)cc1)C2=O` (stereo not given), the activity change, negative = inhibition in experiment [1] is 3.38%; in experiment [2], 0%; in experiment [3], 2.03%; in experiment [4], 5.08%; in experiment [5] it was -1.76%.
On the same counts, the results for `O=C(Cc1cccn1-c1ccc(F)cc1)N1CCCCC1` are -12.3%, -11.4%, -7.86%, -14.8% and 4.72%.
With `O=C(CCc1nnc2n(Cc3ccc(Cl)cc3)c(=O)c3ccccc3n12)NCc1ccccn1`, the activity change, negative = inhibition was -17.7% in experiment [1]; 2.09% in experiment [2]; -0.908% in experiment [3]; -4.48% in experiment [4]; -1.11% in experiment [5].
On to `O=C(NCCc1ccncc1)C1CN(C(=O)C2CCCCC2)CC12CCOCC2` (stereo not given), for which the activity change, negative = inhibition in experiment [1] was 0.421%; in experiment [2], -0.878%; in experiment [3], 1.72%; in experiment [4] it was -0.278%; in experiment [5], -0.502%.
On to `COc1cc(C(=O)O)ccc1OC1OC(CO)C(O)C(O)C1O` (stereo not given), for which the activity change, negative = inhibition was 4.33% in experiment [1]; -0.181% in experiment [2]; 8.79% in experiment [3]; -13.3% in experiment [4]; 4.51% in experiment [5].
Take `O=C1NCCCc2[nH]c(-c3cnn(-c4ccc(F)cc4)c3)nc21`: the activity change, negative = inhibition is -6.35% in experiment [1]; -6.38% in experiment [2]; -3.83% in experiment [3]; -12.9% in experiment [4]; -8.45% in experiment [5].
As for `CC(C)CCn1c(=O)c2ccc(C(=O)NC(C)C)cc2n2c(=O)n(CC(=O)NCc3ccccc3)nc12`, the activity change, negative = inhibition in experiment [1] was 3.29%; in experiment [2], 3.58%; in experiment [3], 3.08%; in experiment [4], -0.108%; in experiment [5] it was 1.06%.
`Clc1cc(Cl)c2c(c1)N=C1CCCCCN1C2`: the activity change, negative = inhibition in experiment [2] was 7.88%; in experiment [4] it was -15.2%; in experiment [5] it was -14.5%.
For the compound `Cc1cccc(C(=O)N2CC(N(C)Cc3cccnc3)C2)c1`, the activity change, negative = inhibition was -6.43% in experiment [1]; -9.64% in experiment [2]; -4.87% in experiment [3]; -15.2% in experiment [4]; 4.52% in experiment [5].
As for `Cc1cccc(CNC(=O)C2(C)Cn3cnc(C(=O)NCc4ccccc4F)c3C(=O)N2C2CC2)c1` (stereo not given), the activity change, negative = inhibition in experiment [1] was -2.4%; in experiment [2], 0.422%; in experiment [3], 3.7%; in experiment [4] it was 0.33%; in experiment [5], 1.82%.
The like results for `Cc1ccc(CN2CCC(C3CCN(S(C)(=O)=O)CC3)C2)o1` (stereo not given) were, in that order, -2.38%, -2%, -2.57%, -0.589% and -5.59%.
As for `CC1(C(=O)NCC2CCCO2)Cn2c(cc3ccccc32)C(=O)N1Cc1ccccc1Br` (stereo not given), the activity change, negative = inhibition is 3.4% in experiment [1]; 1.31% in experiment [2]; 0.567% in experiment [3]; 7.32% in experiment [4]; -1.63% in experiment [5].
`Cc1[nH]nc(C(=O)N[C@@H]2COCC[C@@H]2OCc2ccccc2)c1Cl`: the activity change, negative = inhibition in experiment [1] was -1.46%; in experiment [2], 0.575%; in experiment [3], -0.036%; in experiment [4] it was -1.48%; in experiment [5], -3.81%.
For `CCOC(=O)C(CCc1ccccc1)NC1CCCN2CCCC(C(=O)O)N2C1=O` (stereo not given), the figures for the activity change, negative = inhibition in experiment [1] and in experiment [3] were 5.68% and 11.1%, respectively.
Take `Cn1ncc(N2CCCC(CC(=O)O)C2)cc1=O` (stereo not given): the activity change, negative = inhibition in experiment [1] is -5.08%; in experiment [2] it was -4.92%; in experiment [3] it was -1.94%; in experiment [4], -8.42%; in experiment [5], -28.5%.
As for `CC(=O)N1CCC(C(=O)NCc2nn(Cc3ccccc3)c3ccccc23)CC1`, the activity change, negative = inhibition was 0.947% in experiment [1]; 0.842% in experiment [2]; -6.85% in experiment [3]; -5.54% in experiment [4]; 1.14% in experiment [5].
As to `COc1ccc(CCO[C@@H]2O[C@H](CO[C@H]3OC[C@](O)(CO)[C@H]3O)[C@@H](OC(=O)/C=C/c3ccc(O)c(O)c3)[C@H](O[C@@H]3O[C@@H](C)[C@H](O)[C@@H](O)[C@H]3O)[C@H]2O)cc1OC`, the activity change, negative = inhibition in experiment [1] was -1.46%; in experiment [2] it was -7.9%; in experiment [3], 5.52%; in experiment [4], -19.9%; in experiment [5] it was -15.3%.
As for `Cc1cc(Cl)ccc1NS(=O)(=O)c1ccc2[nH]c3c(c2c1)CCCC3`, the activity change, negative = inhibition was 1.42% in experiment [1]; 0% in experiment [2]; 5.73% in experiment [3]; -12.8% in experiment [4]; 4.54% in experiment [5].
As to `O=C(c1cn[nH]c1)N1CCC(c2nc(CCOCC3CC3)no2)C1` (stereo not given), the activity change, negative = inhibition was -5.47% in experiment [1]; -1.26% in experiment [2]; -2.14% in experiment [3]; -2.37% in experiment [4]; -5.48% in experiment [5].
On the same counts, the results for `O=C(NC1CCCN(CCn2nc3n(c2=O)CCCC3)C1)c1ccccc1Cl` (stereo not given) are -2.41%, -4.13%, 2.54%, -2.65% and 1.95%.
